Results from PMC6919601, “Identification of Plasmodium dipeptidyl aminopeptidase allosteric inhibitors by high throughput screening” (PLoS ONE, 2019).
Screen size: about 110,000 compounds; about 230 (0.21%) showed an effect of 50% or more. The list shows a part of the results.

The compounds below were run against DPAP1 (Plasmodium falciparum, UniProt Q8IIJ9) (assay: primary screen, percent inhibition; read by cleavage of a fluorogenic dipeptide substrate; higher = more effect of the substance).
Sequence of DPAP1 (Q8IIJ9 whole entry, looked up): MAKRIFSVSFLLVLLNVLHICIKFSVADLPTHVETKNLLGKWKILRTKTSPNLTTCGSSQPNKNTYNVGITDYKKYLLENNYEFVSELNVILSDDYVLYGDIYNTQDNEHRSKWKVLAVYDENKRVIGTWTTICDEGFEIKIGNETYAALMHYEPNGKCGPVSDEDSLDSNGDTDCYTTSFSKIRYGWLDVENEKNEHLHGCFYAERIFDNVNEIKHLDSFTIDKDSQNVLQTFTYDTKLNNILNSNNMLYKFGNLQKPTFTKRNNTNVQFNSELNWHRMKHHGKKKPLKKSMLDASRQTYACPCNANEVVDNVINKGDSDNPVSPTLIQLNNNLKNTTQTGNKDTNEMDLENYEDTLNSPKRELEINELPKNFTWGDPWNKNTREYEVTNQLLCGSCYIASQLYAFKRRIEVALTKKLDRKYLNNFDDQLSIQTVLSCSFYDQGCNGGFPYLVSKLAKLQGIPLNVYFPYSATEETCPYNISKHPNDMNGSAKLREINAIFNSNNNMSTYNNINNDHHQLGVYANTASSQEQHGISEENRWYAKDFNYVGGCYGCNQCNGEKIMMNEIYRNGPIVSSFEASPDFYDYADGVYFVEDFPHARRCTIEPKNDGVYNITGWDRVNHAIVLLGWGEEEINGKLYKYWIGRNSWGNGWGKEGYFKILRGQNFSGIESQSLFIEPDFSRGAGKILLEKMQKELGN
Set-up: species or system P. falciparum D10 trophozoite lysates; single well
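Also: 30 min substrate incubation versus DMSO and 10 µM JCP410 controls.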

Compound | % Inhibition @ 10 uM
Clc1ccc(CN2CCN(c3cccc(Cl)c3)CC2)cc1 | 1.63%
CCCN1C/C(=C\c2ccccc2)C(=O)/C(=C/c2ccccc2)C1 | 4.54%
CS(=O)(=O)N(CC(=O)NC1CC2CCC1C2)c1ccc(Cl)c(Cl)c1 (stereo not drawn) | 3.35%
CCCOc1ccc(C2NC(=O)NC(C)=C2C(=O)OCc2ccccc2)cc1 (stereo not drawn) | 29.2%
Cc1ccc(S(=O)(=O)c2cc3ccccc3oc2=O)cc1 | 2.12%
CCOc1ccccc1-n1nnc(-c2nsc(NC(=O)c3ccc(Br)cc3)n2)c1C | -2.28%
COc1ccc(S(=O)(=O)N(CC(=O)Nc2cc(C)ccc2C)c2ccccc2)cc1 | 1.52%
CCOc1ccc(N2C(=O)c3cccc4c(C(=O)c5ccccc5)ccc(c34)C2=O)cc1 | -0.0372%
Cc1cccc2c1N(C)C(=O)/C2=C1\SC(Nc2ccccc2Cl)=NC1=O | 1.7%
CCC1CCCCN1C1N=CNc2sc3c(c21)CCCC3 (stereo not drawn) | 1.69%
Cc1ccc2oc(=O)c3cnn(CC(=O)N(CCN(C)C)Cc4ccco4)c3c2c1 | -1.7%
N#Cc1nc(/C=C/c2ccc(F)cc2)oc1NCc1ccc2c(c1)OCO2 | -4.39%
Cc1cc(NC(=O)/C=C/c2ccc(C)o2)no1 | 0.64%
CCC(C)NC(=O)c1ccccc1NC(=O)CN(c1ccc(C)cc1C)S(C)(=O)=O (stereo not drawn) | -1.35%
Cc1ccnc(NC(=O)COc2cc(C)ccc2C(C)C)c1 | 17%
COc1ccc(C(=O)Nc2nnc(S(=O)(=O)N(C)Cc3ccccc3)s2)cc1 | 1.1%
CN1CCN(c2nc3c(c(=O)n(C)c(=O)n3C)n2Cc2ccc(Cl)cc2Cl)CC1 | -0.48%
Cc1cc(-c2ccc(C)c(S(=O)(=O)NCc3ccccc3Cl)c2)on1 | -6.07%
O=C(CCc1ccccc1)Nc1nc(-c2ccccc2)cs1 | -3.72%
CCc1ccc(C=C(C(=O)O)C(=O)O)s1 | 1.64%
Cc1cccc(CS(=O)(=O)Cc2ccc(C(=O)NCCCN(C)C3CCCCC3)o2)c1 | -0.971%
COc1ccc(CCNC(=O)c2ccc(C/N=c3/c(N4CCOCC4)c(O)c3=O)cc2)cc1OC | 1.47%
O=C(NCC1CCCO1)c1ccc(NC(=O)c2cccc(Cl)c2)cc1 (stereo not drawn) | -3.43%
CCCCCNC(=O)c1ccc(OC)cc1 | -5.44%
CCc1c(C)sc(NC(=O)c2ccccc2C)c1C#N | -4.61%
OCCN(Cc1ccccc1)C1CCC(c2ccccc2)CC1 (stereo not drawn) | 3.19%

Compound | % Inhibition @ 10 uM
COc1ccc(C2C(C#N)=C(N)Oc3cc(C)oc(=O)c32)c(OC)c1OC (stereo not drawn) | -0.0372%
Cc1ccc2ncc(S(=O)(=O)c3ccc(C(C)(C)C)cc3)c(O)c2c1 | -5.25%
Cc1ccc(-n2nnc(-c3nc(-c4ccc(Cl)cc4)no3)c2N)c(C)c1 | 3.98%
CC1CCCN(CCCNc2ncnc3onc(-c4ccc(F)cc4)c23)C1 (stereo not drawn) | 2.42%
COc1ccc(S(=O)(=O)Nc2ccc(C(=O)c3ccccc3)cc2)cc1 | -2.09%
O=C(NCc1ccccn1)c1cc(S(=O)(=O)N2CCCCC2)c[nH]1 | 0.589%
Cc1ccc(C(=O)N2CCN(c3ccccc3)CC2)cc1[N+](=O)[O-] | -4.3%
Cn1cccc1Cc1nnc(SCC(N)=O)n1CCc1ccccc1 | -0.495%
CCCCC(=O)NC(c1ccco1)c1ccc2cccnc2c1O (stereo not drawn) | -6.93%
Cc1sc(NC(=O)c2ccc3c(c2)OCO3)c(C#N)c1C | 24.3%
CCc1ccc(NC(=O)c2cccc(C(=O)Nc3ccc(CC)cc3)c2)cc1 | -4.4%
O=C(O)C1CCCN(c2ncccn2)C1 (stereo not drawn) | -4.91%
O=C(NCc1ccc(Cl)cc1)c1ccc(C(=O)NCc2ccc(Cl)cc2)nc1 | 0.389%
CCN(CC)C(=O)C1CCCN(Cc2c(F)cccc2F)C1 (stereo not drawn) | -1.75%
Cc1ccc(C)c(OCC(=O)N2CCCC2)c1 | -1.84%
CCN1C(=O)N/C(=C/c2c(C)n(Cc3ccc(Cl)cc3)c3ccccc23)C1=O | -5%
Cc1nn(Cc2cccc(C(=O)Nc3nc(-c4ccccc4)cs3)c2)c(C)c1Cl | -5%
CCNc1oc(COc2cccc(C)c2)nc1C#N | -2.47%
Cc1ccc(C(=O)Nc2cc(Cl)ccc2C)cc1 | -8.76%
O=C(CSc1nc(-c2ccccc2)cc(C(F)(F)F)n1)Nc1ccccn1 | 4.42%
N#Cc1c(S)nc(N2CCOCC2)c2c1CCCC2 | 1.8%
Cc1ccc(C(=O)C2=C(O)C(=O)N(CCCn3ccnc3)C2c2ccco2)cc1 (stereo not drawn) | 1.88%
CCCOc1ccc2c(=O)c(Oc3ccccc3F)c(C)oc2c1 | -1.37%
OCCNCc1cc(Br)ccc1OCc1ccccc1Cl | -3.09%
Fc1ccccc1N1CCN(Cc2c[nH]c3ccccc23)CC1 | 12.3%
